Experimental data: PMC9855889
These are yes or no findings as the source states them, for the method shown. Some entries that bind do so weakly or less than the wild type. Where a sequence is shown, tags or fusion partners need not be part of it. Each block holds one molecule with its values, some of them ahead of it.

Sequences of proteins named here, by UniProt entry; tags and fusion partners are left off.
UniProt P10591: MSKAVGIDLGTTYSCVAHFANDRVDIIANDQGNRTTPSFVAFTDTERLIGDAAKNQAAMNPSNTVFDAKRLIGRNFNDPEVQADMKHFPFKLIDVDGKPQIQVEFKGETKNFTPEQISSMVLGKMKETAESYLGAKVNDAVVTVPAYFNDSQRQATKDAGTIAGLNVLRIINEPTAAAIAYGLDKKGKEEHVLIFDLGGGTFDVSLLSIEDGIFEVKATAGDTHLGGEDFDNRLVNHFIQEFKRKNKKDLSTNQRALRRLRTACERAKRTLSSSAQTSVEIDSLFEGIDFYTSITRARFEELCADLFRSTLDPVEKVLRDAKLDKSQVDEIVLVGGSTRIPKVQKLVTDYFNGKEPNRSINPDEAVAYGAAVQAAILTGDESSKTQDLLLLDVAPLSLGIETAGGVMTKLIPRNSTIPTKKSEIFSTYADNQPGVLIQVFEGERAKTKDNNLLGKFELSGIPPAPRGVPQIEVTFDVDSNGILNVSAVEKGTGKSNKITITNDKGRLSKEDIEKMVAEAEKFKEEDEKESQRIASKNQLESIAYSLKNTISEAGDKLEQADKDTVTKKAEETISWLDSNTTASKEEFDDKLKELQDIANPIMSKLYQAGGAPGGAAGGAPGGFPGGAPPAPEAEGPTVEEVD

Assays:
[1] = target: T1, α1-HA (Scl1-HA) (S. cerevisiae) (UniProt P21243); assay: native gel or EMSA; crude yeast extracts prepared with 26S buffer without ATP (0 mM), native PAGE, anti-HA blot
T1 sequence: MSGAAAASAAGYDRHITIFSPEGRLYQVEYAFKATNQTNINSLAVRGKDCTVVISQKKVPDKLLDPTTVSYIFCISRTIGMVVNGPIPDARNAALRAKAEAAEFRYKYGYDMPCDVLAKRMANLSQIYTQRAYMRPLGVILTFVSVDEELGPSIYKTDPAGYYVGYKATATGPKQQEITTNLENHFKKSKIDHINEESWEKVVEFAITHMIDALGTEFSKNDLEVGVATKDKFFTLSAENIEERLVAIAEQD

[2] = target: T2, α4-HA (Pre6-HA) (S. cerevisiae) (UniProt P40303); assay: as above
T2 sequence: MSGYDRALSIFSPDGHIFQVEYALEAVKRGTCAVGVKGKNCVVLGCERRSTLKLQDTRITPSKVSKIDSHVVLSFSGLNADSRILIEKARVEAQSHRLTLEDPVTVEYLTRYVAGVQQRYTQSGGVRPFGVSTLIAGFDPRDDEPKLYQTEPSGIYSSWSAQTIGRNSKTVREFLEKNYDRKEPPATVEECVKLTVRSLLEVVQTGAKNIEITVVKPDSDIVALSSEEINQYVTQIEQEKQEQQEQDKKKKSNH

[3] = target: T1, α1-HA (Scl1-HA) (S. cerevisiae); assay: native gel or EMSA; crude yeast extracts in 26S buffer (2 mM ATP), 4-15% native PAGE, anti-HA blot of the HA-tagged α subunit; +C bands compared in WT, sse1∆, sse1-G205D and ssa mutant strains; ATP or ADP (1 or 2 mM) added to ATP-free extracts restored the +C bands
[4] = target: T2, α4-HA (Pre6-HA) (S. cerevisiae); assay: as above
[5] = target: T1, α1-HA (Scl1-HA) (S. cerevisiae); assay: as above; remark: listed apart in the source
[6] = target: T3, α2-HA (Pre8-HA) (S. cerevisiae) (UniProt P23639); assay: as above
T3 sequence: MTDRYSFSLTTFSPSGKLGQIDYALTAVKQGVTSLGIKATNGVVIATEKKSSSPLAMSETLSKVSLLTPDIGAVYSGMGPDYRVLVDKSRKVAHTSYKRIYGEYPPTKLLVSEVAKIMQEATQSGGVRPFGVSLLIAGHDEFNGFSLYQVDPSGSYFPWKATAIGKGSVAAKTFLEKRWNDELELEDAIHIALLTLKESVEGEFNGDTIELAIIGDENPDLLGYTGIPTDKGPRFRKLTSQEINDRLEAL

[7] = target: T2, α4-HA (Pre6-HA) (S. cerevisiae); assay: as above; remark: listed apart in the source

binding [3]: binds
binding [4]: binds
Molecule: Ssa1 (from UniProt P10591 1-642)
binding [1]: no binding (condition: extraction buffer without ATP)
binding [2]: no binding (condition: extraction buffer without ATP)

binding [5]: binds
binding [6]: binds
binding [7]: binds
B1: Sse1 (protein, UniProt P32589 1-693)
chain: MSTPFGLDLGNNNSVLAVARNRGIDIVVNEVSNRSTPSVVGFGPKNRYLGETGKNKQTSNIKNTVANLKRIIGLDYHHPDFEQESKHFTSKLVELDDKKTGAEVRFAGEKHVFSATQLAAMFIDKVKDTVKQDTKANITDVCIAVPPWYTEEQRYNIADAARIAGLNPVRIVNDVTAAGVSYGIFKTDLPEGEEKPRIVAFVDIGHSSYTCSIMAFKKGQLKVLGTACDKHFGGRDFDLAITEHFADEFKTKYKIDIRENPKAYNRILTAAEKLKKVLSANTNAPFSVESVMNDVDVSSQLSREELEELVKPLLERVTEPVTKALAQAKLSAEEVDFVEIIGGTTRIPTLKQSISEAFGKPLSTTLNQDEAIAKGAAFICAIHSPTLRVRPFKFEDIHPYSVSYSWDKQVEDEDHMEVFPAGSSFPSTKLITLNRTGDFSMAASYTDITQLPPNTPEQIANWEITGVQLPEGQDSVPVKLKLRCDPSGLHTIEEAYTIEDIEVEEPIPLPEDAPEDAEQEFKKVTKTVKKDDLTIVAHTFGLDAKKLNELIEKENEMLAQDKLVAETEDRKNTLEEYIYTLRGKLEEEYAPFASDAEKTKLQGMLNKAEEWLYDEGFDSIKAKYIAKYEELASLGNIIRGRYLAKEEEKKQAIRSKQEASQMAAMAEKLAAQRKAEAEKKEEKKDTEGDVDMD
binding [1]: no binding (condition: extraction buffer without ATP)
binding [2]: no binding (condition: extraction buffer without ATP)
